From PubChem BioAssay AID360 (National Center for Advancing Translational Sciences (NCATS), 2006) come the findings set out here.

The structures appear in SMILES notation. The campaign covered roughly 48,000 compounds. About 550 (1.1%) were called active. Not shown: some 4% with an inconclusive outcome. Cut-off read from the data, not from the text of the source: active = potency below about 15 µM; inconclusive = mostly about 16 µM to 33 µM; inactive = weaker than that. Some of the results follow.
Potency is the fitted concentration of half-maximal effect.

The target of the assay is Lysosomal acid glucosylceramidase (Homo sapiens) (UniProt P04062). Kind of assay: Glucocerebrosidase.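 Note: the screen sought inhibitors.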 To be noted: purified enzyme, resorufin glucoside fluorescence (screen aimed at inhibitors), 20 min. The method in brief: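 Normal human glucocerebrosidase (0.2 nM final) was assayed with resorufin β-D-glucopyranoside (30 uM final) in 50mM citric acid/KH2PO4, 10mM sodium taurocholate, 0.01% tween-20, pH 5.9. Compounds were titrated; fluorescence (Ex 548, Em 600) read after 20 min at RT.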
Chain of UniProt P04062 (P04062 whole entry, looked up): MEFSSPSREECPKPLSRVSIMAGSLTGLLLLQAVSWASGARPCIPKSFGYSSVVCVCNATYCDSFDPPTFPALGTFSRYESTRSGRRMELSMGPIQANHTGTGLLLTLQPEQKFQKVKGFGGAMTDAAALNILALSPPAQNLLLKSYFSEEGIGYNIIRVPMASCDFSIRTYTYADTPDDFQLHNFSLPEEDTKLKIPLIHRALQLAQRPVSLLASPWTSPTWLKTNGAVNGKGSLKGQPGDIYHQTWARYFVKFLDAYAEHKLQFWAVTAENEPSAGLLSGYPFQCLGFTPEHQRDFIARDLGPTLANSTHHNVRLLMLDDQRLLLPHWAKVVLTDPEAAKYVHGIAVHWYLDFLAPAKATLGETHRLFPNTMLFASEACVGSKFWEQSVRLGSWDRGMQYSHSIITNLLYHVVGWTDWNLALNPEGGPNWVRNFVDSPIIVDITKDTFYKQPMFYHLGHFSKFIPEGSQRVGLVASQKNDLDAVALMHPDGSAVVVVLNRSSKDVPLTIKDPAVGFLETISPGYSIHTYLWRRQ
In the case of `O=C(OCC(=O)N1CCCCCC1)c1n[nH]c(=O)c2ccccc12`, the Potency is inactive: > 76.9 µM.

`CN(CCc1ccccn1)S(=O)(=O)c1ccc(F)cc1`: the Potency was inactive: > 76.9 µM. The figure for `COc1ccc(OC)c(S(=O)(=O)NCCC2=CCCCC2)c1` is inactive: > 76.9 µM. For `CCOC(=O)CC(Nc1nc(N2CCOCC2)nc(N2CCOCC2)n1)c1ccccc1Cl` (stereo not drawn), the Potency was inactive: > 76.9 µM. As for `CN(C)S(=O)(=O)c1ccc(S(=O)(=O)N(Cc2ccco2)Cc2ccccc2Cl)cc1`, the Potency is inactive: > 76.9 µM. Turning to `Cc1cc(-c2ccccc2)n(-c2ccc(C(=O)N3CCN(c4ncccn4)CC3)cc2)n1`, the Potency was inactive: > 76.9 µM. As to `Nc1nc(N)nc(-c2ccccc2)n1`, the Potency was inactive: > 76.9 µM. Take `CCCc1nnc(NC(=O)Cn2c(=O)sc3ccccc32)s1`: the Potency is inactive: > 76.9 µM.

In the case of `O=C(Nc1cccc(Cl)c1)c1ccc2c(=O)n3c(nc2c1)CCCCC3`, the Potency is inactive: > 76.9 µM.

`COC(=O)CCC(=O)c1oc2ccc(Br)cc2c1N`: the Potency was inactive: > 76.9 µM. `O=C(NCc1ccc2c(c1)OCO2)c1nn2cccnc2c1Cl`: the Potency was inactive: > 76.9 µM.

Turning to `COC(=O)c1ccc(OCC(O)Cn2nnc3ccccc32)cc1` (stereo not drawn), the Potency is inactive: > 76.9 µM. The same measure for `COc1ccccc1-n1cnnc1SCC(=O)Nc1cc(C(C)(C)C)nn1-c1ccccc1`: inactive: > 76.9 µM. Take `Cc1n[nH]c(=O)nc1NCCN(C)C`: the Potency was inactive: > 76.9 µM. With `Cc1ccc(-c2nnn(CC(=O)N(c3ccc(F)cc3)C(C(=O)NC3CCCC3)c3ccco3)n2)o1` (stereo not drawn), the Potency is inactive: > 76.9 µM. Regarding `O=S(=O)(NCC1CCCO1)c1ccc(S(=O)(=O)N2CCc3ccccc3C2)cc1` (stereo not drawn), the Potency was inactive: > 76.9 µM. `COc1cccc(C(=O)N2CCN(Cc3ccc4c(c3)OCO4)CC2)c1OC`: the Potency was inactive: > 76.9 µM.

With `Cc1ccc(-n2ncc(-c3nnc(SCC(=O)NC4CCCC4)o3)c2N)cc1C`, the Potency was inactive: > 76.9 µM.

With `CC1=C(C(=O)N(C)C)C(c2ccc(Cl)c(Cl)c2)NC(=O)N1` (stereo not drawn), the Potency was inactive: > 76.9 µM.

In the case of `O=C(CSc1nnc(CNC(=O)c2cccs2)o1)c1ccccc1`, the Potency is inactive: > 76.9 µM.

Consider `Cc1c(C(=O)Nc2cccc3cccnc23)oc2ccccc12`, for which the Potency was inactive: > 76.9 µM. For the compound `CCC(C)(C)n1nnnc1CN(Cc1cc2cc(OC)ccc2[nH]c1=O)C1CCCC1`, the Potency is inactive: > 15.4 µM. The same measure for `Cc1cc(C)n(C(=O)c2ccc(NC(=O)CC(C)C)cc2)n1`: inactive: > 76.9 µM; for `CCOC(=O)Cc1csc(NC(=O)C2CCCCC2C(=O)O)n1` (stereo not drawn): inactive: > 76.9 µM; for `O=C(COc1ccc(Br)cc1)OCc1nnc(-c2ccccc2)o1`: inactive: > 76.9 µM. On to `CCOC(=O)Nc1ccc(Oc2ccccc2)cc1`, for which the Potency is inactive: > 76.9 µM.

`Cc1cc2nnc(SCC(=O)N3C(C)CCCC3C)n2c(N)n1` (stereo not drawn): the Potency is inactive: > 76.9 µM. The figure for `CCn1nc(C)c(Oc2ccccc2O)c1C` is inactive: > 76.9 µM.

Consider `O=C(c1cccc(Cl)c1)N1CCN(C2CCCCCC2)CC1`, for which the Potency is inactive: > 76.9 µM. As for `CCNc1nc(NCC)nc(N(C)n2cnnc2)n1`, the Potency is inactive: > 76.9 µM.

For `CC(=O)c1cccc(NC(=O)CN(c2cccc(F)c2)S(C)(=O)=O)c1`, the Potency was inactive: > 76.9 µM.

Turning to `CCOc1cccc(C2C(C(=O)c3ccco3)=C(O)C(=O)N2Cc2ccncc2)c1` (stereo not drawn), the Potency is inactive: > 76.9 µM.

For the compound `CC(C)C1N(c2ccccc2)C(N)=C(C#N)C1(C#N)C#N` (stereo not drawn), the Potency was inactive: > 76.9 µM. As to `CC1(C)Cc2c(c(N3CCCC3)nc3sc4c(N5CCN(CCO)CC5)ncnc4c23)CO1`, the Potency is inactive: > 76.9 µM. For `CC(C)CCNC(=O)C(c1ccco1)N(Cc1ccc(F)cc1)C(=O)c1snc(C(N)=O)c1N` (stereo not drawn), the Potency entry was “inactive”. The same measure for `COC(=O)c1sc(S(=O)(=O)N2CCC(C)CC2)c(C(=O)OC)c1C`: inactive: > 76.9 µM; for `CC(C)COC(=O)CCn1[nH]c(=O)c2ccccc2c1=O`: inactive: > 76.9 µM; for `CCOC(=O)CSc1nnc(CNC(=O)c2ccc(OC)cc2OC)n1-c1ccc(OC)cc1`: inactive: > 76.9 µM. The same measure for `Clc1ccc(OCc2nn3c(-c4ccco4)nnc3s2)c(Cl)c1`: inactive: > 76.9 µM; for `COc1cccc(NS(=O)(=O)c2ccc3[nH]cc(C(=O)NCCCOC(C)C)c(=O)c3c2)c1`: inactive: > 76.9 µM. The same measure for `Cc1cc(=O)[nH]c2c1cnn2Cc1ccccc1`: inactive: > 76.9 µM; for `N#CC1=C(N)SC2(CCCCC2)SC1c1ccccc1` (stereo not drawn): inactive: > 76.9 µM; for `Cc1nc(N2CCOCC2)c2oc3ccccc3c2n1`: inactive: > 76.9 µM.

Take `O=C(CCNS(=O)(=O)c1cccc2nonc12)N1CCN(c2cccc(Cl)c2)CC1`: the Potency was inactive: > 76.9 µM.

`Cc1ccc(NC(=O)NCCc2ccc(S(N)(=O)=O)cc2)cc1`: the Potency was inactive: > 76.9 µM. In the case of `Cc1cc(C)c(C)c(S(=O)(=O)Nc2ccc(O)cc2)c1C`, the Potency entry was “inactive”.

As to `CCCCC(=O)NC1(C(F)(F)F)C(=O)N(Cc2ccco2)C(C)=C1C(=O)OC` (stereo not drawn), the Potency was inactive: > 76.9 µM.

For the compound `O=C(O)CCCC(=O)NCc1ccccn1`, the Potency is inactive: > 76.9 µM. The figure for `Cc1ccc(-c2c3c(=O)n(C)c(=O)n(C)c3c3c(C)cc(C)nn23)cc1` is inactive: > 76.9 µM. The same measure for `CCN(CC)C(=O)c1ccc(COc2ccccc2Br)o1`: inactive: > 76.9 µM.

For `O=C(CSc1ccc(Cl)cc1)Nn1cnnc1`, the Potency is inactive: > 76.9 µM. The same measure for `COCCn1c(C)cc(C(=O)CSc2ccc(NC(C)=O)cc2)c1C`: inactive: > 76.9 µM; for `COCCn1c(C)cc(C(=O)CSc2ncnc3sc4c(c23)CCC4)c1C`: inactive: > 76.9 µM; for `OCCSc1nc(-c2cccnc2)nc2ccccc12`: inactive: > 76.9 µM.

For `CCOC(=O)C1(CCSC)NC(c2ccco2)C2C(=O)N(CC)C(=O)C21` (stereo not drawn), the Potency is inactive: > 76.9 µM. `CCN(CC)CCCn1c(=S)[nH]c2ccccc2c1=O`: the Potency is inactive: > 76.9 µM.

Take `CCCn1c(SCC(=O)Nc2sc(C)c(C)c2C(=O)OC)nc2c1c(=O)n(C)c(=O)n2C`: the Potency is inactive: > 76.9 µM.

In the case of `CCOC(=O)c1ccccc1NC(=O)Cn1cnc2c(cnn2-c2ccc(F)cc2)c1=O`, the Potency was inactive: > 76.9 µM.
